Columns and labels:
[1] = biological target: T1, cynomolgus monkey PSMA (cynomolgus monkey, UniProt A0A2K5VNZ0 44-750); assay: SPR
T1 chain: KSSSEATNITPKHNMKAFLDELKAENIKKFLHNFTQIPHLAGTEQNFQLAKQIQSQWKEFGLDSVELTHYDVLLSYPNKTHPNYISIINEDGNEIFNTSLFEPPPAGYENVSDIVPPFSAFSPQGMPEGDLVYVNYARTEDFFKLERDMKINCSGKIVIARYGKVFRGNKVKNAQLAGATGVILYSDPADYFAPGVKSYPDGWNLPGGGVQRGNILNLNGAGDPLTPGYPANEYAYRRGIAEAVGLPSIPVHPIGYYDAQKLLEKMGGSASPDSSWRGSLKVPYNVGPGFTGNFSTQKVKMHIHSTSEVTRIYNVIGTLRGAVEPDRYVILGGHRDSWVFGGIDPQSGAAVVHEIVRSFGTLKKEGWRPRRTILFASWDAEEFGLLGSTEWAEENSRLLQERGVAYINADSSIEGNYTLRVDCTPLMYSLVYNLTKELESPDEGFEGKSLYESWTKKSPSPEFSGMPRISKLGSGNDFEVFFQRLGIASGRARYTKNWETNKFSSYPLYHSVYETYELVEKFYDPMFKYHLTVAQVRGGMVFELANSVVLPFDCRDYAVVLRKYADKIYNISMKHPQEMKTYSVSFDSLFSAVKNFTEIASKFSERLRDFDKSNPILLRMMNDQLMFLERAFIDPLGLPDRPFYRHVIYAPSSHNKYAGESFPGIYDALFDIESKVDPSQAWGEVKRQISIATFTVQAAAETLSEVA

[2] = biological target: human PSMA (human, UniProt Q04609); assay: SPR
Sequence of UniProt Q04609 (Q04609 44-750): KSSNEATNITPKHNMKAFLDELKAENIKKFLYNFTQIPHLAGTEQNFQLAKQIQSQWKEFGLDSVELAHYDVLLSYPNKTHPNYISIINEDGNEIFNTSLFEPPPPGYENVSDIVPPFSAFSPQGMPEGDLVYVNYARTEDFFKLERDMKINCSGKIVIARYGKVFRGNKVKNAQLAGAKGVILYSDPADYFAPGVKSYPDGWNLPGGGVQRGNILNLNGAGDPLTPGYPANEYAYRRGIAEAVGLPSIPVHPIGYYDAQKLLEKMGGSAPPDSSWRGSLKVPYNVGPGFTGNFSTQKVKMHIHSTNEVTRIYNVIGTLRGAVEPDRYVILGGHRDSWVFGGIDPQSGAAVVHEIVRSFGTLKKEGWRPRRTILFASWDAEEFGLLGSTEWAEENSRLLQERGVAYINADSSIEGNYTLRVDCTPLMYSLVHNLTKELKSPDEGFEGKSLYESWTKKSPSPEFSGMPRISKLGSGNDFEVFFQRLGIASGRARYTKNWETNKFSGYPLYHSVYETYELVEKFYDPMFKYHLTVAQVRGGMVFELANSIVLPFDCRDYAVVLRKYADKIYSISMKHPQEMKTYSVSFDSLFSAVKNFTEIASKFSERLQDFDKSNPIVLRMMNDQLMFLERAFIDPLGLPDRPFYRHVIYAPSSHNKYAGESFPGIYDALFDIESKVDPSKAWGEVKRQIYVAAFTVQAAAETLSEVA

Kd [1]: 35 nM | Kd [2]: 17 nM
B1: cHv75-2a7.G1(C99Y;L328C)k-AGL-01332-93 (other)
heavy: EVQLVESGGGLVQPGGSLRLSCAASGITFSNYWMSWVRQAPGKGLEWVANIKKDGSEKFYVDSVKGRFTISRDNAKNSLYLQINSLRAEDTAMYYCAREIQLYLQHWGQGTLVTVSSASTKGPSVFPLAPSSKSTSGGTAALGCLVKDYFPEPVTVSWNSGALTSGVHTFPAVLQSSGLYSLSSVVTVPSSSLGTQTYICNVNHKPSNTKVDKKV[human IgG1 Fc with L328C (EU numbers) omitted]
light: DIQMTQSPSSVSASVGGRVTITCRASQGISNWLAWYQQKPGKAPKLLIYAASSLQSGVPSRFSGSGSGTDFTLTISNLQPEDFASYYCQQANSFPLTFGGGTKVEIKRTVAAPSVFIFPPSDEQLKSGTASVVCLLNNFYPREAKVQWKVDNALQSGNSQESVTEQDSKDSTYSLSSTLTLSKADYEKHKVYACEVTHQGLSSPVTKSFNRGEC
modifications: AGL-01332-93 drug-linker conjugated (DAR 1.86). The examples do not state the site; the name points to the engineered cysteine L328C.

Reference: patent US20230059690A1 (published 2023)
